Reference: publication PMC10774418, “A cyclin D1 intrinsically disordered domain accesses modified histone motifs to govern gene transcription” (Oncogenesis, 2024)
These are yes or no findings as the source states them, for the method shown. Some binding calls cover weakened binding; strength is not graded here.

Protein sequences, listed by entry. Tags and fused reporters are not part of them. Lines headed by an entry give the natural chain unless they say otherwise; changes in a name come on top. Chains listed by the source or under a name are the forms on record and can include a tag or linker.
UniProt P11802: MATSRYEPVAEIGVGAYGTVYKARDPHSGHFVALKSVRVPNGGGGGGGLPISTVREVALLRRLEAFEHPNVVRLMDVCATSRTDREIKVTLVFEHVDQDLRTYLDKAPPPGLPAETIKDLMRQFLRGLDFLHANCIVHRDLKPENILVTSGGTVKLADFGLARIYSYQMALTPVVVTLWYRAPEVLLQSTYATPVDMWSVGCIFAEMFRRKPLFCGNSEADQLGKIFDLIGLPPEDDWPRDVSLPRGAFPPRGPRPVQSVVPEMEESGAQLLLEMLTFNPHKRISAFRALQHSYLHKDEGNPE
UniProt P24385: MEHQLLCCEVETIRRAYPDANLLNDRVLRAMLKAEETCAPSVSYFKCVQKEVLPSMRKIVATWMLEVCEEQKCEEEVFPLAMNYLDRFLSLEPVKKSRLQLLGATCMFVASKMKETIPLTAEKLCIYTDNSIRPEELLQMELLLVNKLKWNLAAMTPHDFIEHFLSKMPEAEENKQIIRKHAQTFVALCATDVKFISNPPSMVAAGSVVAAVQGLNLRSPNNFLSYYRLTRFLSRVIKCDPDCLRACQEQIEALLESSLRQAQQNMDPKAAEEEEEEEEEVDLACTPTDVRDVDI
VP16-cyclin D1 E278/280A (P24385, form named): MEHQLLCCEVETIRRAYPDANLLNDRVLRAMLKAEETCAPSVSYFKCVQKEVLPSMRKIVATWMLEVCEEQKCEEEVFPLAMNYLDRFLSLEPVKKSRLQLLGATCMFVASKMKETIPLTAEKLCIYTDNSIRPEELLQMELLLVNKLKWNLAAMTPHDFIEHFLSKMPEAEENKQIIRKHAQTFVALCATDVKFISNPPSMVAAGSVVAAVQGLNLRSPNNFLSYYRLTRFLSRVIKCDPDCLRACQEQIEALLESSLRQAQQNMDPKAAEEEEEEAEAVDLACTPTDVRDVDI
VP16-cyclin D1 KE (point substitution of K114) (P24385, form named): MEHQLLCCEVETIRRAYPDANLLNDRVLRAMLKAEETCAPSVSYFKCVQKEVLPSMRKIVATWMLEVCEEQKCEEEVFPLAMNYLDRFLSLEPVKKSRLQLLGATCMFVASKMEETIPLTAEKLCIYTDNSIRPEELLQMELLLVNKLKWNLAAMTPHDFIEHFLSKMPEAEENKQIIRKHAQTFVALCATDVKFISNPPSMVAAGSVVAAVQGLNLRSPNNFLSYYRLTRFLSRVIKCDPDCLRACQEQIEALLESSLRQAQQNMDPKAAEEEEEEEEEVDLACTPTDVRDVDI
VP16-cyclin D1 ΔE (P24385, form named): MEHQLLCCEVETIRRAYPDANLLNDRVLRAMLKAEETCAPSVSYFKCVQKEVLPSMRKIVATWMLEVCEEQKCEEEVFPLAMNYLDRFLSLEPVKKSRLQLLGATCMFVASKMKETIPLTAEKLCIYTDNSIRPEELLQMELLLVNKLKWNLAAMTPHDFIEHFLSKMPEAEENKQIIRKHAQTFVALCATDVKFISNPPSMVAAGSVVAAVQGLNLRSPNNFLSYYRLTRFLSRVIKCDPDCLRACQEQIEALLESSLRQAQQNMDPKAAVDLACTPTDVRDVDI

Each substance was assayed against Gal4-CDK4 (human) (UniProt P11802) (assay: two-hybrid; mammalian two-hybrid (Promega): Gal4-CDK4 (pBIND), VP16-cyclin D1 (pACT) and pG5-Luc co-transfected into MCF-7 or HEK-293T cells; luciferase read 48 h after transfection).

Row | Substance | binding
1 | VP16-cyclin D1 C4 (aa179-aa295) (from UniProt P24385 179-295) (domain or fragment) | no binding
2 | VP16-cyclin D1 E278/280A (from UniProt P24385 1-295) | binds
3 | VP16-cyclin D1 E278A (from UniProt P24385 1-295) | binds
4 | VP16-cyclin D1 E280A (from UniProt P24385 1-295) | binds
5 | VP16-cyclin D1 ΔE (from UniProt P24385 1-295) | binds

More lines, now with the values ahead:

Row | binding | Substance
6 | no binding | VP16-cyclin D1 KE (point substitution of K114) (from UniProt P24385 1-295)
7 | binds | VP16-cyclin D1 wild type (from UniProt P24385 1-295)
